From publication PMC6019357 come the findings set out here.

Sequences of proteins named here, by UniProt entry; tags and fusion partners are left off.
UniProt Q08775: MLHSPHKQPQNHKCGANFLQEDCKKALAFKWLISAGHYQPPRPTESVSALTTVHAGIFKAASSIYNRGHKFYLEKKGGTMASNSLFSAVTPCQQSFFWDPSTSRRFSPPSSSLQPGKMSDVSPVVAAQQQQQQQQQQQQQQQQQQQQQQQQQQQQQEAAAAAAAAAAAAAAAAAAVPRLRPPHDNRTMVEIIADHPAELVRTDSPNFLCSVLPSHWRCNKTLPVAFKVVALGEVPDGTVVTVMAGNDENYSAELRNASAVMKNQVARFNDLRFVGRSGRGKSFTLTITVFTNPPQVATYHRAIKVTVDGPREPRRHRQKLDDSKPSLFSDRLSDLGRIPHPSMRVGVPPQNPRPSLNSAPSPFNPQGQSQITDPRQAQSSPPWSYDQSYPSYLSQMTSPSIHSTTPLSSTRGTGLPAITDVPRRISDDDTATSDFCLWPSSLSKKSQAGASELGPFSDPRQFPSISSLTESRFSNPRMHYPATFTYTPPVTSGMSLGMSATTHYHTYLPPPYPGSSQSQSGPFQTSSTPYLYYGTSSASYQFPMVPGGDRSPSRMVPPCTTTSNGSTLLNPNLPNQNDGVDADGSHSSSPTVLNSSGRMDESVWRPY

These are yes or no findings as the source states them, for the method shown. Binding seen in cells or lysates may run through a third protein. Some results given as binding are weak or reduced against the parent protein; the word gives no strength.

Assay [1] addresses T1, interferon-inducible protein p202 (mouse (endogenous in mouse BMSCs; wild-type mouse cDNA in pcDNA-p202)) (UniProt Q9R002).
T1 sequence: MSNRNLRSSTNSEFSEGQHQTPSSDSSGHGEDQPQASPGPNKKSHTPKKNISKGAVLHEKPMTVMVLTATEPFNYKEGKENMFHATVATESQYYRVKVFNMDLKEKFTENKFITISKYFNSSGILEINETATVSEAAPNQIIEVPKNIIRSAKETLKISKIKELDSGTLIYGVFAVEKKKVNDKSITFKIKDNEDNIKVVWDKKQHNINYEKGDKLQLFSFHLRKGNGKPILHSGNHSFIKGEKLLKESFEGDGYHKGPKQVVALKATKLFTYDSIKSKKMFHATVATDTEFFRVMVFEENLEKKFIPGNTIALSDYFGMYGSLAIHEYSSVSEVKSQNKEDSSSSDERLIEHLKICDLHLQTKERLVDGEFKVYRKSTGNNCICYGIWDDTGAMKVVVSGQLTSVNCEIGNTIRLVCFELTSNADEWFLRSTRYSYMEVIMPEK
Put plainly: co-IP; extracts of mouse BMSCs at day 4 of osteogenic induction (OS; also mock, siRNA-p202, pcDNA or pcDNA-p202 treated) incubated with anti-p202 or anti-Runx2 antibody (1 ug) at 4°C overnight, protein A/G Plus Agarose beads, Western blot with anti-p202, anti-Runx2, anti-Id1, anti-Id2 or anti-Id3. (In western blotting, separated proteins are transferred to a membrane and probed.)

Assay [2] addresses Runt-related transcription factor 2 (mouse (endogenous in mouse BMSCs)) (UniProt Q08775). Described as above.

Regarding “Runt-related transcription factor 2 (from UniProt Q08775 1-607)”, in assay [1], the binding entry is “no binding”.

B1: inhibitor of differentiation protein Id2 (protein, UniProt P41136 1-134)
chain: MKAFSPVRSVRKNSLSDHSLGISRSKTPVDDPMSLLYNMNDCYSKLKELVPSIPQNKKVTKMEILQHVIDYILDLQIALDSHPTIVSLHHQRPGQNQASRTPLTTLNTDISILSLQASEFPSELMSNDSKVLCG
Turning to B1, the binding result in assay [1] and in assay [2] was “binds” each time.

B2: inhibitor of differentiation protein Id3 (protein, UniProt P41133 1-119)
chain: MKALSPVRGCYEAVCCLSERSLAIARGRGKSPSTEEPLSLLDDMNHCYSRLRELVPGVPRGTQLSQVEILQRVIDYILDLQVVLAEPAPGPPDGPHLPIQTAELTPELVISKDKRSFCH
With B2, the binding result in assay [1] and in assay [2] was “binds” throughout.

B3: inhibitor of differentiation protein Id1 (protein, UniProt P20067 1-168)
chain: MKVASGSAAAAAGPSCSLKAGRTAGEVVLGLSEQSVAISRCAGTRLPALLDEQQVNVLLYDMNGCYSRLKELVPTLPQNRKVSKVEILQHVIDYIRDLQLELNSESEVGTTGGRGLPVRAPLSTLNGEISALAAEVRSESEYYIILQWETEATGGGCPPSLLFRRIAI
B3: the binding result in assay [1] and in assay [2] was “binds” in each case.
